The source of these data is the supplement of paper PMC12217912.

The labels stand for the following.
B1: TEV protease; numbered along this chain (parent)
chain: MGESLFKGPRDYNPISSSICHLTNESDGHTTSLYGIGFGPFIITNKHLFRRNNGTLVVQSLHGVFKVKDTTTLQQHLVDGRDMIIIRMPKDFPPFPQKLKFREPQREERICLVTTNFQTKSMSSMVSDTSCTFPSGDGIFWKHWIQTKDGQCGSPLVSTRDGFIVGIHSASNFTNTNNYFTSVPKNFMELLTNQEAQQWVSGWRLNADSVLWGGHKVFMVKPEEPFQPVKEATQL

This is one part of the list. The full chains were built here from the parent and the listed change. Inactive controls read about 0.05.

Variants of B1 are the subject of this experiment. The experiment is described as follows: raw area under fraction-flipped curve 0-4 h after induction (AUC4h, not background-subtracted), DNA-recorder readout of cleavage of the substrate (dimensionless); higher = more cleavage of the substrate by the protease variant. As to conditions: temperature: 34 °C; time window: 0-4 h after rhamnose induction. How it is done: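 In vivo DNA recorder in E. coli TOP10(DE3) ΔrhaA at 34 °C. Each TEVp single-site mutant (parent TEVp 0) is paired with a single-site variant of the 7-mer TEVs (canonical ENLYFQ|S). The substrate sits between flexible linkers in a Bxb1-sfGFP-TEVs-SsrA fusion, so cleavage stabilises Bxb1 and speeds flipping of a recombination array, read by NGS. The value is the raw area under the fraction-flipped curve over 0-4 h after rhamnose induction (AUC4h), with ≥20 reads per time point. It is not background-subtracted; inactive controls average about 0.047.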
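Also: Bxb1 expression induced with 0.2% (w/v) L-rhamnose at OD600 near 0.5, cultures sampled hourly, flipped fraction per protease–substrate barcode pair counted by paired-end Illumina sequencing.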

Take MGESLFKGPRDYNPISSSICHLTNESDGHTTSLYGIGFGPFIITNKHLFRRNNGTLVVQSLHGVFKVKDTTTLQQHLVDGRDMIIIRMPKDFPPFPQKLKFREPQREERICLVTTNFQTKSMSSMVSDTSCTFPSGDGIFWKHWIHTKDGQCGSPLVSTRDGFIVGIHSASNFTNTNNYFTSVPKNFMELLTNQEAQQWVSGWRLNADSVLWGGHKVFMVKPEEPFQPVKEATQL [Q146H]: the “area with substrate ENLYFAS” value was 0.0553, the “area with substrate ENLYFCS” value was 0.0445, the “area with substrate ENLYFDS” value turned out to be 0.164 and the “area with substrate ENLYFES” value was found to be 0.0634. The “area with substrate ENLYFFS” value was determined as 0.0682, the “area with substrate ENLYFIS” value worked out at 0.0464, the “area with substrate ENLYFKS” value came out at 0.0629 and the “area with substrate ENLYFLS” value was found to be 0.0668. Besides, the “area with substrate ENLYFMS” value came out at 0.0678, the “area with substrate ENLYFNS” value is 0.0597, the “area with substrate ENLYFPS” value was found to be 0.0496 and the “area with substrate ENLYFRS” value amounted to 0.0777. Also, the “area with substrate ENLYFSS” value came to 0.0565, the “area with substrate ENLYFTS” value stood at 0.0729, the “area with substrate ENLYFWS” value worked out at 0.0587 and the “area with substrate ENLYFYS” value stood at 0.0543.

As to MGESLFKGPRDYNPISSSICHLTNESDGHTTSLYGIGFGPFIITNKHLFRRNNGTLVVQSLHGVFKVKDTTTLQQHLVDGRDMIIIRMPKDFPPFPQKLKFREPQREERICLVTTNFQTKSMSSMVSDTSCTFPSGDGIFWKHWIWTKDGQCGSPLVSTRDGFIVGIHSASNFTNTNNYFTSVPKNFMELLTNQEAQQWVSGWRLNADSVLWGGHKVFMVKPEEPFQPVKEATQL [Q146W], the “area with substrate ENLYFAS” value is 0.0792, the “area with substrate ENLYFDS” value came to 0.0226, the “area with substrate ENLYFFS” value was determined as 0.0424 and the “area with substrate ENLYFGS” value amounted to 0.0542. In addition, the “area with substrate ENLYFIS” value came out at 0.0518, the “area with substrate ENLYFMS” value was 0.0855, the “area with substrate ENLYFNS” value amounted to 0.0647 and the “area with substrate ENLYFPS” value turned out to be 0.0431. Besides, the “area with substrate ENLYFRS” value is 0.077, the “area with substrate ENLYFTS” value stood at 0.0662, the “area with substrate ENLYFVS” value came to 0.0544 and the “area with substrate ENLYFWS” value was found to be 0.0636. The “area with substrate ENLYFYS” value is 0.0509.

With MGESLFKGPRDYNPISSSICHLTNESDGHTTSLYGIGFGPFIITNKHLFRRNNGTLVVQSLHGVFKVKDTTTLQQHLVDGRDMIIIRMPKDFPPFPQKLKFREPQREERICLVTTNFQTKSMSSMVSDTSCTFPSGDGIFWKHWISTKDGQCGSPLVSTRDGFIVGIHSASNFTNTNNYFTSVPKNFMELLTNQEAQQWVSGWRLNADSVLWGGHKVFMVKPEEPFQPVKEATQL [Q146S], the “area with substrate ENLYFAS” value was determined as 0.0756, the “area with substrate ENLYFCS” value came to 0.0592, the “area with substrate ENLYFIS” value was 0.046 and the “area with substrate ENLYFLS” value amounted to 0.055. The “area with substrate ENLYFMS” value came to 0.0621, the “area with substrate ENLYFPS” value was 0.0682, the “area with substrate ENLYFSS” value was 0.0599 and the “area with substrate ENLYFYS” value came out at 0.0462.

In the case of MGESLFKGPRDYNPISSSICHLTNESDGHTTSLYGIGFGPFIITNKHLFRRNNGTLVVQSLHGVFKVKDTTTLQQHLVDGRDMIIIRMPKDFPPFPQKLKFREPQREERICLVTTNFQTKSMSSMVSDTSCTFPSGDSIFWKHWIQTKDGQCGSPLVSTRDGFIVGIHSASNFTNTNNYFTSVPKNFMELLTNQEAQQWVSGWRLNADSVLWGGHKVFMVKPEEPFQPVKEATQL [G138S], the “area with substrate ENLYFAS” value is 0.0624, the “area with substrate ENLYFES” value was 0.063, the “area with substrate ENLYFHS” value was 0.05 and the “area with substrate ENLYFLS” value was 0.0541. For the same variant, the “area with substrate ENLYFMS” value worked out at 0.0453, the “area with substrate ENLYFSS” value amounted to 0.0706, the “area with substrate ENLYFTS” value came to 0.0448 and the “area with substrate ENLYFVS” value was found to be 0.0629. The “area with substrate ENLYFWS” value worked out at 0.0544.

On to MGESLFKGPRDYNPISSSICHLTNESDGHTTSLYGIGFGPFIITNKHLFRRNNGTLVVQSLHGVFKVKDTTTLQQHLVDGRDMIIIRMPKDFPPFPQKLKFREPQREERICLVTTNFQTKSMSSMVSDTSCTFPSGDKIFWKHWIQTKDGQCGSPLVSTRDGFIVGIHSASNFTNTNNYFTSVPKNFMELLTNQEAQQWVSGWRLNADSVLWGGHKVFMVKPEEPFQPVKEATQL [G138K], for which the “area with substrate ENLYFAS” value is 0.0623, the “area with substrate ENLYFES” value is 0.0579, the “area with substrate ENLYFIS” value was found to be 0.0575 and the “area with substrate ENLYFLS” value came out at 0.0659. Besides, the “area with substrate ENLYFMS” value came out at 0.0576, the “area with substrate ENLYFNS” value came to 0.075, the “area with substrate ENLYFPS” value was 0.0658 and the “area with substrate ENLYFRS” value came out at 0.0501. In addition, the “area with substrate ENLYFTS” value came out at 0.0613 and the “area with substrate ENLYFVS” value turned out to be 0.0553.

As to MGESLFKGPRDYNPISSSICHLTNESDGHTTSLYGIGFGPFIITNKHLFRRNNGTLVVQSLHGVFKVKDTTTLQQHLVDGRDMIIIRMPKDFPPFPQKLKFREPQREERICLVTTNFQTKSMSSMVSDTSVTFPSGDGIFWKHWIQTKDGQCGSPLVSTRDGFIVGIHSASNFTNTNNYFTSVPKNFMELLTNQEAQQWVSGWRLNADSVLWGGHKVFMVKPEEPFQPVKEATQL [C131V], the “area with substrate ENLYFAS” value is 0.0463, the “area with substrate ENLYFFS” value amounted to 0.0595, the “area with substrate ENLYFHS” value worked out at 0.0605 and the “area with substrate ENLYFIS” value is 0.0499. For the same variant, the “area with substrate ENLYFKS” value turned out to be 0.0734 and the “area with substrate ENLYFWS” value is 0.0593.

For the variant MGESLFKGPRDYNPISSSICHLTNESDGHTTSLYGIGFGPFIITNKHLFRRNNGTLVVQSLHGVFKVKDTTTLQQHLVDGRDMIIIRMPKDFPPFPQKLKFREPQREERICLVTTNFQTKSMSSMVSDTSCTFPSGDGIFWKHWMQTKDGQCGSPLVSTRDGFIVGIHSASNFTNTNNYFTSVPKNFMELLTNQEAQQWVSGWRLNADSVLWGGHKVFMVKPEEPFQPVKEATQL [I145M], the “area with substrate ENLYFAS” value came out at 0.0598, the “area with substrate ENLYFCS” value was found to be 0.051, the “area with substrate ENLYFDS” value was found to be 0.0601 and the “area with substrate ENLYFES” value worked out at 0.0552. In addition, the “area with substrate ENLYFFS” value is 0.0613, the “area with substrate ENLYFGS” value came out at 0.0552, the “area with substrate ENLYFHS” value came to 0.0495 and the “area with substrate ENLYFIS” value came to 0.0589. Also, the “area with substrate ENLYFKS” value turned out to be 0.052, the “area with substrate ENLYFMS” value was found to be 0.0714, the “area with substrate ENLYFPS” value was determined as 0.0615 and the “area with substrate ENLYFRS” value came to 0.0549. Besides, the “area with substrate ENLYFTS” value was 0.0614, the “area with substrate ENLYFVS” value turned out to be 0.0267, the “area with substrate ENLYFWS” value came out at 0.0599 and the “area with substrate ENLYFYS” value was determined as 0.0328.

Turning to MGESLFKGPRDYNPISSSICHLTNESDGHTTSLYGIGFGPFIITNKHLFRRNNGTLVVQSLHGVFKVKDTTTLQQHLVDGRDMIIIRMPKDFPPFPQKLKFREPQREERICLVTTNFQTKSMSSMVSDTSCTFPSGDGIQWKHWIQTKDGQCGSPLVSTRDGFIVGIHSASNFTNTNNYFTSVPKNFMELLTNQEAQQWVSGWRLNADSVLWGGHKVFMVKPEEPFQPVKEATQL [F140Q], the “area with substrate ENLYFAS” value amounted to 0.051, the “area with substrate ENLYFCS” value amounted to 0.0447, the “area with substrate ENLYFES” value stood at 0.0654 and the “area with substrate ENLYFHS” value was determined as 0.0637.

Consider MGESLFKGPRDYNPISSSICHLTNESDGHTTSLYGIGFGPFIITNKHLFRRNNGTLVVQSLHGVFKVKDTTTLQQHLVDGRDMIIIRMPKDFPPFPQKLKFREPQREERICLVTTNFQTKSMSSMVSDTSCTFPSGDGIYWKHWIQTKDGQCGSPLVSTRDGFIVGIHSASNFTNTNNYFTSVPKNFMELLTNQEAQQWVSGWRLNADSVLWGGHKVFMVKPEEPFQPVKEATQL [F140Y], for which the “area with substrate ENLYFAS” value was 0.0671, the “area with substrate ENLYFES” value worked out at 0.0686, the “area with substrate ENLYFIS” value was determined as 0.0549 and the “area with substrate ENLYFLS” value amounted to 0.102. Also, the “area with substrate ENLYFMS” value came to 0.0592, the “area with substrate ENLYFRS” value is 0.041, the “area with substrate ENLYFTS” value worked out at 0.0613 and the “area with substrate ENLYFYS” value was found to be 0.0558.

For MGESLFKGPRDYNPISSSICHLTNESDGHTTSLYGIGFGPFIITNKHLFRRNNGTLVVQSLHGVFKVKDTTTLQQHLVDGRDMIIIRMPKDFPPFPQKLKFREPQREERICLVTTNFQTKSMSSMVSDTSCTFPSGDGRFWKHWIQTKDGQCGSPLVSTRDGFIVGIHSASNFTNTNNYFTSVPKNFMELLTNQEAQQWVSGWRLNADSVLWGGHKVFMVKPEEPFQPVKEATQL [I139R], the “area with substrate ENLYFAS” value worked out at 0.0585, the “area with substrate ENLYFCS” value turned out to be 0.0468, the “area with substrate ENLYFDS” value was determined as 0.0652 and the “area with substrate ENLYFES” value was determined as 0.0615. Also, the “area with substrate ENLYFFS” value came out at 0.0702, the “area with substrate ENLYFGS” value came out at 0.0641, the “area with substrate ENLYFHS” value amounted to 0.0427 and the “area with substrate ENLYFKS” value is 0.0465. In addition, the “area with substrate ENLYFLS” value came out at 0.0455 and the “area with substrate ENLYFMS” value turned out to be 0.043.

For MGESLFKGPRDYNPISSSICHLTNESDGHTTSLYGIGFGPFIITNKHLFRRNNGTLVVQSLHGVFKVKDTTTLQQHLVDGRDMIIIRMPKDFPPFPQKLKFREPQREERICLVTTNFQTKSMSSMVSDTSCTFPSGDGCFWKHWIQTKDGQCGSPLVSTRDGFIVGIHSASNFTNTNNYFTSVPKNFMELLTNQEAQQWVSGWRLNADSVLWGGHKVFMVKPEEPFQPVKEATQL [I139C], the “area with substrate ENLYFAS” value was determined as 0.0517, the “area with substrate ENLYFES” value is 0.0694, the “area with substrate ENLYFFS” value turned out to be 0.0748 and the “area with substrate ENLYFGS” value was found to be 0.0891. For the same variant, the “area with substrate ENLYFHS” value was determined as 0.0903, the “area with substrate ENLYFIS” value was found to be 0.0621, the “area with substrate ENLYFKS” value stood at 0.0626 and the “area with substrate ENLYFMS” value is 0.0684. In addition, the “area with substrate ENLYFPS” value is 0.0341, the “area with substrate ENLYFRS” value came out at 0.0608, the “area with substrate ENLYFSS” value worked out at 0.0614 and the “area with substrate ENLYFTS” value was determined as 0.048. The “area with substrate ENLYFVS” value is 0.0573.
